Whole data set: some 110,000 compounds, median “z-score” near -0.1, cut for the highest 2% near 2. The list shows a part of the results.
Molecular target: Metabotropic glutamate receptor 8 (Rattus norvegicus) (UniProt P70579)
Experiment: mGluR8 Gi/Go-coupled signaling modulation – cell-based, rat, thallium flux, HTS, primary screen (AID 488969)
Details: HEK293 rat mGluR8, GIRK (G protein-gated inwardly rectifying potassium channel) thallium flux, FluoZin2; at 10 µM; stronger effect = higher value; submaximal glutamate (EC20) added with thallium

UniProt P70579, sequence (P70579 whole entry, looked up): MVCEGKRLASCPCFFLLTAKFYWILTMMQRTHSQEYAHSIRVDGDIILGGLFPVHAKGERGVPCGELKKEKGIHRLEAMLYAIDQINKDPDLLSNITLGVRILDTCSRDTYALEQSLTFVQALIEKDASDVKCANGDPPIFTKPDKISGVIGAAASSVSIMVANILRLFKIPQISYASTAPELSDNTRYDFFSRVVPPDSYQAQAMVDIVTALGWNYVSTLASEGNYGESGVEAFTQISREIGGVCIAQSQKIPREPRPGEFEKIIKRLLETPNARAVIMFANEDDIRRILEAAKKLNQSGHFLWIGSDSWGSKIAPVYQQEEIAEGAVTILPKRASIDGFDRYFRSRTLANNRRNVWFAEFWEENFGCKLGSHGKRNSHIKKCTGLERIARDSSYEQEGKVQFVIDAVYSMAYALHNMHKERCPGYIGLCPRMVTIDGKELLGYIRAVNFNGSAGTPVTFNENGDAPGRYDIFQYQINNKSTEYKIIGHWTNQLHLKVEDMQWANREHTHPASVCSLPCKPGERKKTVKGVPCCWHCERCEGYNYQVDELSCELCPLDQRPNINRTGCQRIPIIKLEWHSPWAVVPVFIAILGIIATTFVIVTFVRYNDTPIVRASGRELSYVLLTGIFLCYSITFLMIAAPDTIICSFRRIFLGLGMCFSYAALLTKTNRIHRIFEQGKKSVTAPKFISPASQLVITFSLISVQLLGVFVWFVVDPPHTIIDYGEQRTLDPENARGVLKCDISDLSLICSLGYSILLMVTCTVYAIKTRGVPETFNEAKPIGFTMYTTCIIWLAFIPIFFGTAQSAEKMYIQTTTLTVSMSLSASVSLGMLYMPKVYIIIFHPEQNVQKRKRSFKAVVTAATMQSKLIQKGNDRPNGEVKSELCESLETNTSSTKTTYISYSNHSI

SMILES	z-score
CCCN1C2CCCC1CC(NC(=O)NC1CCCCC1)C2 (stereo unspecified)	0.355
COc1ccc(NC2=CC(=O)CC(c3ccccc3)C2)c(OC)c1 (stereo unspecified)	0.118
NCC12CC3CC(C1)CC(CN)(C3)C2	0.158
CC1CCCN(C(=O)c2ccncc2)C1 (stereo unspecified)	-0.122
CN(C(=O)c1ccc2c(=O)n3c(nc2c1)CCCCC3)c1ccccc1	-0.189
COCCCn1c(-c2ccccc2Cl)n[nH]c1=S	0.38
Cc1ccc(C(=O)Nc2ccc(Cl)cn2)cc1	0.195
COC(=O)C1=C(COc2ccc(F)cc2)NC(=O)NC1c1ccc(C)cc1C (stereo unspecified)	-0.235
COc1ccc(S(=O)(=O)N2CCCC(C(=O)Nc3ccc4c(c3)OCCO4)C2)cc1 (stereo unspecified)	-0.103
CC(C)CNC(=O)COC(=O)c1cc(Cl)cc(Cl)c1N	-0.101
c1ccc(-c2nnnn2CCOCCn2nnnc2-c2ccccc2)cc1	0.669
COc1ccc(-c2csc(NC(=O)c3ccccc3NS(=O)(=O)c3ccc(C)cc3)n2)cc1	-1.52
O=C(CCN1C(=O)c2ccccc2C1=O)N1CCCCCC1	0.016
O=C(Nc1ccccc1F)c1cc2nc(C(F)F)cc(C(F)F)n2n1	0.0429
Cc1ccc(SCC(=O)N2c3ccccc3Sc3ccccc32)cc1	-0.197
CN(CCCNC(=O)c1ccc(N2CCCC2=O)cc1)c1ccccc1	0.934
O=C(NC1CCCc2ccccc21)C(Cc1ccccc1)NS(=O)(=O)c1cccs1 (stereo unspecified)	-0.156
CCOCCn1c(CN2CCN(c3ccccc3)CC2)nc2c1c(=O)n(C)c(=O)n2C	0.292
C=CCNC(=O)c1cccc(C(F)(F)F)c1	0.0916
CN1CCN(C(=S)c2ccc(OCC(=O)Nc3cccc(C(F)(F)F)c3)cc2)CC1	-0.00689
c1ccc(-n2nnnc2Sc2ncnc3sc4c(c23)CCCC4)cc1	-0.339
CCOC(=O)c1nnn(-c2nonc2N)c1CSc1ccc(C)cc1	0.333
CCCNc1cc(C)oc(=O)c1C(=O)CCC	-0.441
Cc1cc(=O)c2c(O)c(O)ccc2o1	1.17

SMILES	z-score
COc1ccc(-c2cc(-c3c(O)c(OC)c4occc4c3OC)[nH]n2)cc1	-0.28
CCOC(=O)C1CCCN(C(=O)c2cc(=O)c3ccccc3o2)C1 (stereo unspecified)	2.91
COc1cccc(Nc2cc(C)nc3nc(C)nn23)c1	0.0995
N#CCc1c(C#N)c(N)nc(N2CCN(Cc3ccc4c(c3)OCO4)CC2)c1C#N	-0.642
Nc1cc(=O)[nH]c(SC/C=C/c2ccccc2)n1	-0.0492
c1cncc(-c2nnc3n2C2(CCCCC2)Cc2ccccc2-3)c1	-0.785
S=c1[nH]ncn1-c1ccccn1	-0.153
Cn1c(SCC(=O)NCc2ccco2)nc2ccccc2c1=O	-0.354
COc1cc(C(=O)NCC(=O)N/N=C/c2cccs2)cc(OC)c1OC	-0.174
COc1ccc(-c2nnc(SCC(=O)Nc3cc(F)ccc3C)o2)cc1	-0.209
N/C(=N\c1nc2ccccc2o1)NC(=O)c1ccccc1F	1.12
C/C(CC(=O)Nc1ccc(Cl)c(Cl)c1)=N\NC(N)=S	0.503
CC1=Nn2c(nnc2-c2cc(-c3ccccc3)n[nH]2)SC1	0.859
Cc1ccc(P(C)(=O)c2ccc(C)cc2)cc1	0.0656
CC(=O)N1CCC2(CC1)CC(=O)c1cc(OCC(=O)NCc3ccc(C)cc3)ccc1O2	0.072
CCN(CC)c1ncnc2c1ncn2Cc1c(Cl)cccc1Cl	-0.538
C/C(Cl)=C\Cn1c(N2CCCC2)nc2c1c(=O)[nH]c(=O)n2C	0.763
CC(=O)Nc1ccc(Nc2nc(C)c([N+](=O)[O-])c(Nc3ccc(NC(C)=O)cc3)n2)cc1	-1.15
CN(C)S(=O)(=O)Oc1cccc(C(=O)Nc2ccccc2Cl)c1	-0.0916
C=CCn1c(C)cc(C2=NNC(=NCC)SC2)c1C	0.18
CCOC(=O)C1CCN(C(=O)c2cccc(Cl)c2)CC1	0.0552
COc1ccc(Cl)cc1S(=O)(=O)NCc1cccs1	-0.292
CCOc1ccc(C2N(c3cc(Cl)ccc3OC)C(=O)C3CCCN32)cc1OC (stereo unspecified)	-0.177
CCOC(=O)c1[nH]c(=O)[nH]c1CSc1ccccn1	-0.607

SMILES	z-score
CCCOc1cccc(NC(=O)c2c(-c3ccccc3)noc2C)c1	-0.22
CC(C)NC(=O)Cn1nnc(-c2cccc(NC(=O)c3ccccc3F)c2)n1	-0.717
CCN(CC)S(=O)(=O)c1ccc(NC(=O)c2ccc(N(C)S(C)(=O)=O)cc2)cc1	-0.585
CCOc1ccc(C(=O)CSc2nnc3ccccn23)cc1	-0.111
COCCNS(=O)(=O)c1ccc(-c2ccc(S(=O)(=O)NCCOC)cc2)cc1	0.0682
CC(C)(C)c1ccc(C(=O)Nc2ccccc2NC(=O)c2ccco2)cc1	-0.826
CCOC(=O)c1c(NC(=O)C2=C(C)NC(=S)NC2c2ccccc2C(F)(F)F)sc(C)c1C (stereo unspecified)	-0.198
CNC(=O)CSc1nnnn1-c1ccc(C)cc1C	0.252
C[n+]1cc[nH]c1SCC(=O)c1ccccc1	-0.187
CCOC(=O)c1sc(N)c(C#N)c1CSc1nnc(C2CC2)n1N	-0.0336
FC(F)(F)c1ccc(CSc2nccn2-c2ccccc2)cc1	0.167
O=C(Nc1ccc2c(c1)OCCO2)c1ccc(Br)c(S(=O)(=O)N2CCOCC2)c1	-0.541
Cc1ccc(C(=O)Oc2ccc(Cl)c3cccnc23)cc1[N+](=O)[O-]	0.387
CCCn1c(=S)[nH]c2cc(C(=O)N3CCCC(C(=O)OCC)C3)ccc2c1=O (stereo unspecified)	1.05
O=C(NNC(=O)c1cc(OCC(F)(F)F)ccc1OCC(F)(F)F)c1cccc(C(F)(F)F)c1	0.228
O=C(c1ccc(S(=O)(=O)N2CCOCC2)cc1)N(c1ccc(F)cc1)C1C=CS(=O)(=O)C1 (stereo unspecified)	-0.462
O=C(Nc1ncc2c(n1)-c1ccccc1CC2)c1ccccc1	-0.277
COc1cccc(/C=N/NC(=O)c2ccc(CN3c4cccc5cccc(c45)S3(=O)=O)cc2)c1	-0.142
O=C(O)c1cccc(N=NN2CCCCCC2)c1	-0.207
COc1ccc(C(c2nnnn2CS(=O)(=O)c2ccc(C)cc2)N2CCN(Cc3ccccc3)CC2)cc1 (stereo unspecified)	-0.018
CCOc1cccc(C(=O)NC(=S)Nc2ccc(N3CCCC3)cc2)c1	0.97
CCC12C(=O)C(CC)(C(c3ccccc3)=C1c1ccccc1)[C@@H]1C(=O)N(c3ccccc3)C(=O)C12 (stereo partly specified)	0.116
CCCSc1cc(N2CCCC2)nc(-c2ccccc2)n1	-0.845

From PubChem BioAssay AID488969 (Vanderbilt High Throughput Screening Facility, 2010)
